This is an account of results in PubChem BioAssay AID1745853 (National Center for Advancing Translational Sciences (NCATS), 2022).

Holding throughout (test): Primary Screen for Target Class Profiling of Small Molecule Inhibitors of Methyltransferases
Test [1] concerns the target Glycine N-methyltransferase (Homo sapiens) (UniProt Q14749). The settings on record: purified enzyme, MTase-Glo SAH luminescence; measured here: GNMT inhibition; at 40 µM; stronger effect = lower value. Put shortly: (§1)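 Each enzyme was assayed with SAM and its substrate. SAH formation detected by MTase-Glo luminescence; single-point 40 uM screen[…].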
Test [2] has as its target Guanidinoacetate N-methyltransferase (Homo sapiens) (UniProt Q14353). The settings on record: purified enzyme, MTase-Glo SAH luminescence; measured here: GAMT inhibition; at 40 µM; stronger effect = lower value. Put shortly: as §1
Test [3] concerns the target Histamine N-methyltransferase (Homo sapiens) (UniProt P50135). The settings on record: purified enzyme, MTase-Glo SAH luminescence; measured here: HNMT inhibition; at 40 µM; stronger effect = lower value. The gist of the method: as §1
Test [4] concerns the target Nicotinamide N-methyltransferase (Homo sapiens) (UniProt P40261). The settings on record: purified enzyme, MTase-Glo SAH luminescence; measured here: NNMT inhibition; at 40 µM; stronger effect = lower value. Put shortly:
as §1

Test [5] concerns the target Phenylethanolamine N-methyltransferase (Homo sapiens) (UniProt P11086). The settings on record: purified enzyme, MTase-Glo SAH luminescence; measured here: PNMT inhibition; at 40 µM; stronger effect = lower value. The gist of the method: as §1

The structures appear in SMILES notation. Some of the results follow. These are further read-outs of the screen, such as a control signal, another cell line or another target. No call is given for them.
On the % scale 0 is the no-effect control and ±100 the full control effect.

For the compound `CC1=Nc2cc(C(=O)NCCCN(C)C)ccc2Sc2ccc(F)cc21`, the activity change, negative = inhibition is -4.26% in test [1]; 0.416% in test [2]; -42.7% in test [3]; -10.7% in test [4]; 0.414% in test [5].
As for `CCC(C)NC(=O)c1ccc2c(=O)n(C)c3nn(CC(=O)NC4CCCCC4)c(=O)n3c2c1` (stereo not given), the activity change, negative = inhibition is 6.13% in test [1]; 0.515% in test [2]; 7.95% in test [3]; 4.91% in test [4]; 7.61% in test [5].
As for `CC(C)OCCCn1c(=O)c2ccccc2n2c(=O)n(Cc3ccc(F)cc3)nc12`, the activity change, negative = inhibition in test [1] was -9.52%; in test [2], -0.717%; in test [3], 1.71%; in test [4], -19.1%; in test [5], -6.79%.
For the compound `CCC(C)NC(=O)c1ccc2c(=O)n(C)c3nnc(SCc4ccc(Cl)cc4)n3c2c1` (stereo not given), the activity change, negative = inhibition in test [1] was determined as 10.4%; in test [2], 2.83%; in test [3] it was 12.5%; in test [4], 7.18%; in test [5], 7.51%.
For the compound `CC(C)OCCCn1c(=O)c2ccccc2n2c(CCC(=O)NCc3ccccc3)nnc12`, the activity change, negative = inhibition is -7.75% in test [1]; 5.39% in test [2]; -1.21% in test [3]; 7.52% in test [4]; -9.44% in test [5].
For `COC(=O)c1ncn2c1C(=O)N(Cc1ccc(C)cc1)C(C)(C(=O)NCc1ccccc1)C2` (stereo not given), the activity change, negative = inhibition in test [1] was -16.4%; in test [2], -0.334%; in test [3], -13.5%; in test [4], -10.8%; in test [5], -12.4%.
As for `CCC(C)NC(=O)c1ccc2c(=O)n(C3CC3)c3nn(CC(=O)Nc4ccccc4F)c(=O)n3c2c1` (stereo not given), the activity change, negative = inhibition in test [1] is -3.12%; in test [2], 1.25%; in test [3], 2.59%; in test [4], -3.95%; in test [5], -0.03%.
For the compound `O=C1NC2(CCCN(C(=O)Cc3ccccc3)C2)COc2ccccc21` (stereo not given), the activity change, negative = inhibition in test [1] is -7.38%; in test [2], -4.16%; in test [3], -3.4%; in test [4], -19.2%; in test [5], -20.5%.
For the compound `CCC1COCCN1C(=O)c1coc(COc2ccc3c(c2)OCO3)n1` (stereo not given), the activity change, negative = inhibition was -2.23% in test [1]; -1.05% in test [2]; -2.88% in test [3]; -5.7% in test [4]; -1.47% in test [5].
On the same counts, the results for `C[C@@H]1O[C@@H](O[C@H]2[C@H](OC(=O)C34CCC5(C)C(=CCC6C7(C)CC(O)C(O[C@@H]8O[C@H](C(=O)O)[C@@H](O)[C@H](O)[C@H]8O)C(C)(C(=O)O)C7CCC65C)C3CC(C)(C)CC4O)O[C@H](C)[C@@H](O)[C@@H]2O)[C@H](O)[C@@H](O[C@@H]2OC[C@](O)(CO)[C@H]2O[C@@H]2O[C@H](CO)[C@@H](O)[C@H](O)[C@H]2O)[C@H]1O` (stereo not given in full) are 4.42%, 3.38%, 9.7%, -9.27% and -0.25%.
As to `CC(C(=O)O)c1ccc2c(c1)CC(=O)c1ccccc1S2` (stereo not given), the activity change, negative = inhibition in test [1] was -17.5%; in test [2], 0.641%; in test [3], 13.3%; in test [4], -18.7%; in test [5] it was 2.85%.
As for `O=[S+]([O-])(CCC(F)(F)F)N1CCN(Cc2ccccc2-c2cccnc2)CC1`, the activity change, negative = inhibition is -2.42% in test [1]; -1.1% in test [2]; -2.17% in test [3]; -11.3% in test [4]; -8.19% in test [5].
Turning to `CCc1ccccc1N1C(=O)c2c(NC(C)=O)c3cc(F)ccc3n2CC1(C)C(=O)NC1CCCC1` (stereo not given), the activity change, negative = inhibition was 5.08% in test [1]; 6.64% in test [2]; 1.64% in test [3]; 6.26% in test [4]; -1.35% in test [5].
On the same counts, the results for `COc1cccc(-c2nc3cnccn3c2NCCC(=O)N2CCN(C(C)C)CC2)c1` are -4.85%, -2.37%, -21.3%, -8.94% and -5.35%.
With `CSc1nc(N)c2ncn([C@@H]3O[C@H](COP(=O)(O)OP(=O)(O)O)C(O)[C@H]3O)c2n1` (stereo not given in full), the activity change, negative = inhibition is -25.9% in test [1]; -8.42% in test [2]; -26.9% in test [3]; -23.1% in test [4]; -28.2% in test [5].
On the same counts, the results for `CCC1c2ccc(C)n2CCN1C(=O)Nc1ccc(F)cc1F` (stereo not given) are -10.8%, 1.69%, 0.474%, 0.126% and -14.9%.
Turning to `O=C(NN1CCCCC1)c1nn(-c2ccc(Cl)cc2Cl)c(-c2ccc(C#Cc3ccc(C(F)(F)F)cc3)s2)c1CNS(=O)(=O)N1CCCC1`, the activity change, negative = inhibition was -2.34% in test [1]; -5.09% in test [2]; 10.8% in test [3]; -11.9% in test [4]; 2.96% in test [5].
Regarding `Cc1cn2nc(C(=O)N3CCC(NC(=O)COc4ccccc4)CC3)cc2c(=O)[nH]1`, the activity change, negative = inhibition in test [1] was -8.66%; in test [2], -9.7%; in test [3] it was -6.34%; in test [4], -13.6%; in test [5], -13.7%.
As for `CC1=C[C@@H](CNC(=O)CCC(=O)O)[C@H](C(C)C)C[C@H]1Cc1nc2ccncc2[nH]1`, the activity change, negative = inhibition in test [1] is -7.68%; in test [2] it was -7.83%; in test [3], -16.3%; in test [4], -16.2%; in test [5] it was -13.2%.
On the same counts, the results for `CCc1cccc(N2C(=O)c3c(C(=O)OC)ncn3CC2(C)C(=O)NC2CCCCCC2)c1` (stereo not given) are 8.74%, 0%, 5.57%, 12.3% and 4.61%.
Turning to `CC(CCc1ccc(O)cc1)O[C@@H]1O[C@H](CO[C@@H]2OC(CO)[C@H](O)[C@H]2O)[C@@H](O)[C@H](O)[C@H]1O` (stereo not given in full), the activity change, negative = inhibition in test [1] is 0%; in test [2], 7.83%; in test [3], 5.77%; in test [4] it was -3.65%; in test [5], 7.47%.
Take `Nc1c(-c2ccccc2)nc(Cl)c2c(O)n[nH]c(=O)c12`: the activity change, negative = inhibition is -1.46% in test [1]; 3.11% in test [2]; 3.87% in test [3]; -13.9% in test [4]; 0.108% in test [5].
Take `CSc1ccc(CNC(=O)C2(c3ccc(NS(C)(=O)=O)cc3)CCCCC2)cc1`: the activity change, negative = inhibition in test [1] was -8.28%; in test [2] it was -7.76%; in test [3] it was -6.37%; in test [4] it was -20.1%; in test [5], -17.2%.
For `COc1ccc(CN2C(=O)c3cc4ccccc4n3CC2(C)C(=O)NC2CCCCCC2)cc1` (stereo not given) the same measures were -4.05%, 2.81%, -4.89%, -16.7% and -5.58%.
Take `CC1CCC(NC(=O)CCc2nnc3n(Cc4ccc(F)cc4)c(=O)c4ccccc4n23)CC1` (stereo not given): the activity change, negative = inhibition was -1.29% in test [1]; 3.81% in test [2]; 2.13% in test [3]; -1.02% in test [4]; -0.913% in test [5].
Regarding `CC(C)(C)c1coc([C@@H]2COCCN2C2CCC2)n1`, the activity change, negative = inhibition in test [1] is -4.08%; in test [2], -9.34%; in test [3] it was -3.69%; in test [4] it was -2.41%; in test [5], -7.75%.
Regarding `O=C1OCc2cc3cccc(O[C@@H]4O[C@H](CO)[C@@H](O)[C@H](O)[C@H]4O)c3c(O)c21`, the activity change, negative = inhibition was 4.35% in test [1]; -14.8% in test [2]; -3.78% in test [3]; -31.4% in test [4]; -18.1% in test [5].
Regarding `COc1ccc(N2CCN(C(=O)CCc3nnc4n(CC(C)C)c(=O)c5ccccc5n34)CC2)cc1`, the activity change, negative = inhibition is -12.1% in test [1]; 19.3% in test [2]; 9.3% in test [3]; -22.4% in test [4]; 2.62% in test [5].
